In the supplement of paper PMC8728848:
The list shows a part of the results.

What was measured:
Test in all cases: glycan array binding signal (z-score within array); higher = stronger binding
Settings in all cases: glycan notation: IUPAC condensed, linker removed
[1] = molecular target: Neu5Ac(a2-6)Gal(b1-4)[Fuc(a1-3)]GlcNAc(b1-3)Gal(b1-4)Glc
Method in brief: (§1)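 The binding signal is a Z-score computed within each array. Data were drawn from 3228 arrays in the Consortium for Functional Glycomics database, restricted to those with a known protein sequence. Scores were averaged over arrays of the same protein sequence at different concentrations or buffers, and over linkers, and negative values can be taken as non-binding.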

Neu5Ac(a2-6)GalNAc = molecular target: Neu5Ac(a2-6)GalNAc
Method in brief: as §1

Neu5Ac(a2-8)Neu5Ac = molecular target: Neu5Ac(a2-8)Neu5Ac
Method in brief: as §1

[2] = molecular target: Neu5Ac(a2-8)Neu5Ac(a2-3)Gal(b1-3)GalNAc(b1-4)[Neu5Ac(a2-3)]Gal(b1-4)Glc
Method in brief: as §1

[3] = molecular target: Neu5Ac(a2-8)Neu5Ac(a2-3)Gal(b1-3)GalNAc(b1-4)[Neu5Ac(a2-8)Neu5Ac(a2-3)]Gal(b1-4)Glc
Method in brief: as §1

[4] = molecular target: Neu5Ac(a2-8)Neu5Ac(a2-3)Gal(b1-4)Glc
Method in brief: as §1

[5] = molecular target: Neu5Ac(a2-8)Neu5Ac(a2-3)[Gal(b1-3)GalNAc(b1-4)]Gal(b1-4)Glc
Method in brief: as §1

[6] = molecular target: Neu5Ac(a2-8)Neu5Ac(a2-3)[GalNAc(b1-4)]Gal(b1-4)Glc
Method in brief: as §1

[7] = molecular target: Neu5Ac(a2-8)Neu5Ac(a2-8)Neu5Ac
Method in brief: as §1

[8] = molecular target: Neu5Ac(a2-8)Neu5Ac(a2-8)Neu5Ac(a2-8)Neu5Ac
Method in brief: as §1

[9] = molecular target: Neu5Ac(a2-8)Neu5Ac(a2-8)Neu5Ac(a2-8)Neu5Ac(a2-8)Neu5Ac
Method in brief: as §1

[10] = molecular target: Neu5Ac(a2-8)Neu5Ac(a2-8)Neu5Ac(a2-8)Neu5Ac(a2-8)Neu5Ac(a2-8)Neu5Ac
Method in brief: as §1

[11] = molecular target: Neu5Ac(a2-8)Neu5Ac(a2-8)Neu5Ac(a2-8)Neu5Ac(a2-8)Neu5Ac(a2-8)Neu5Ac(a2-8)Neu5Ac
Method in brief: as §1

[12] = molecular target: Neu5Ac(a2-8)Neu5Ac(a2-8)Neu5Ac(a2-8)Neu5Ac(a2-8)Neu5Ac(a2-8)Neu5Ac(a2-8)Neu5Ac(a2-8)Neu5Ac
Method in brief: as §1

[13] = molecular target: Neu5Ac(a2-8)Neu5Ac(a2-8)Neu5Ac(a2-8)Neu5Ac(a2-8)Neu5Ac(a2-8)Neu5Ac(a2-8)Neu5Ac(a2-8)Neu5Ac(a2-8)Neu5Ac
Method in brief: as §1

[14] = molecular target: Neu5Ac(a2-8)Neu5Ac(a2-8)Neu5Ac(a2-8)Neu5Ac(a2-8)Neu5Ac(a2-8)Neu5Ac(a2-8)Neu5Ac(a2-8)Neu5Ac(a2-8)Neu5Ac(a2-8)Neu5Ac
Method in brief: as §1

Neu5Ac(b2-3)Gal(b1-4)Glc = molecular target: Neu5Ac(b2-3)Gal(b1-4)Glc
Method in brief: as §1

Neu5Ac(b2-6)Gal(b1-4)Glc = molecular target: Neu5Ac(b2-6)Gal(b1-4)Glc
Method in brief: as §1

[15] = molecular target: Neu5Ac9Ac(a2-6)Gal(b1-4)GlcNAc
Method in brief: as §1

Neu5Gc(a2-3)Gal(b1-4)Glc = molecular target: Neu5Gc(a2-3)Gal(b1-4)Glc
Method in brief: as §1

[16] = molecular target: Neu5Gc(a2-6)Gal(b1-4)GlcNAc(b1-2)Man(a1-3)[Neu5Gc(a2-6)Gal(b1-4)GlcNAc(b1-2)Man(a1-6)]Man(b1-4)GlcNAc(b1-4)GlcNAc
Method in brief: as §1

Neu5Gc(a2-6)GalNAc = molecular target: Neu5Gc(a2-6)GalNAc
Method in brief: as §1

Rha(a1-6)Glc = molecular target: Rha(a1-6)Glc
Method in brief: as §1

[17] = molecular target: Xyl(a1-6)Glc(b1-4)[Xyl(a1-6)]Glc(b1-4)[Xyl(a1-6)]Glc(b1-4)Glc
Method in brief: as §1

[18] = molecular target: Xyl(b1-2)[Man(a1-3)][Man(a1-6)]Man(b1-4)GlcNAc(b1-4)GlcNAc
Method in brief: as §1

[19] = molecular target: Xyl(b1-2)[Man(a1-3)][Man(a1-6)]Man(b1-4)GlcNAc(b1-4)[Fuc(a1-3)]GlcNAc
Method in brief: as §1

[20] = molecular target: Xyl(b1-4)Xyl(b1-4)Xyl(b1-4)Xyl(b1-4)Xyl
Method in brief: as §1

[21] = molecular target: Xyl(b1-4)Xyl(b1-4)Xyl(b1-4)Xyl(b1-4)Xyl(b1-4)Xyl
Method in brief: as §1

Measured: glycan array binding signal (z-score)

B1: MIC4-A5 (Toxoplasma gondii), Q9XZH7 (protein)
chain: SPDFHDEVECVHTGNIGSKAQTIGEVKRASSLSECRARCQAEKECSHYTYNVKSGLCYPKRGKPQFYKYLGDMTGSRTCDTS
-0.289: [2]
6.1: [5]
-0.322: Neu5Ac(b2-6)Gal(b1-4)Glc | Rha(a1-6)Glc
-0.323: [1] | Neu5Ac(a2-6)GalNAc | Neu5Ac(a2-8)Neu5Ac | [6] | [7] | [8] | [9] | [10] | [11] | [12] | [13] | [14] | [15] | Neu5Gc(a2-3)Gal(b1-4)Glc | [16] | Neu5Gc(a2-6)GalNAc | [17] | [18] | [19] | [20] | [21]
-0.321: [4]
-0.32: Neu5Ac(b2-3)Gal(b1-4)Glc
-0.029: [3]
